Assay results: PubChem BioAssay AID624417 (National Center for Advancing Translational Sciences (NCATS), 2012)
In all, about 410,000 compounds went through this assay and about 6,400 (1.6%) were called active. Inconclusive results, whose numbers are uncertain, are shown with a selection of clear calls. Calls come from the whole dose curve; as a rule, active = well fitted inhibition curve with a large enough effect; inconclusive = small, poorly fitted or top-dose-only effect; inactive = no such curve, though single readings can be large or run the other way. No potency is given beside an inconclusive call; the fits are too rough.

Molecular target: Glucagon-like peptide 1 receptor (Homo sapiens) (UniProt P43220)
Assay: qHTS of GLP-1 Receptor Inverse Agonists (Inhibition Mode); note: nearly all actives have a fitted effect of over 55% in size
Conditions: HEK293 GLP-1R CRE-luciferase, luminescence, 24 h, GLP-1R form is constitutively active; activity change, negative = inhibition: at 38.3 µM (top of the series) unless noted
Summary of the method: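 Readout was luciferase luminescence, measured 12 min after detection reagent at room temperature. Beforehand, GLP-1R reporter HEK293 cells had sat 12 h, then received compounds for 24 hr at 37 deg C.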
% is set by controls: 0 for no effect and ±100 for the full control effect; potency is the fitted concentration of half-maximal effect; tags give direction and shape of the fitted curve.

Chain of UniProt P43220 (P43220 whole entry, looked up): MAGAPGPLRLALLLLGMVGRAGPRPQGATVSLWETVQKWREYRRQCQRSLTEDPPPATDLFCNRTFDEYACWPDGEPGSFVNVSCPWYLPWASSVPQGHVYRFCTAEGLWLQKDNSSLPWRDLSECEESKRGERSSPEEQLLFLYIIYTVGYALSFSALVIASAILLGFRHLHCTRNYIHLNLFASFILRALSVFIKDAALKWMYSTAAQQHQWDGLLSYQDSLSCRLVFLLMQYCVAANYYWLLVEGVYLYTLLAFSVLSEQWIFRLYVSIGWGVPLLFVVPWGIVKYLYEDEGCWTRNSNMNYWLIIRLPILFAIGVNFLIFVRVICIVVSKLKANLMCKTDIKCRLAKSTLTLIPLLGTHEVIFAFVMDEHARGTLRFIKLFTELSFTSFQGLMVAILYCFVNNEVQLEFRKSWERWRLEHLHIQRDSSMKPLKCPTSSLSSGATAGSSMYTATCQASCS

Compound	Potency	activity change, negative = inhibition
Cc1ccc(C)c(NC(=O)c2cc(-c3ccccc3)nn2-c2ccccc2)c1	inconclusive [inhibitor, partial curve, poor fit]	–
CCN(CC)C(=O)c1cccc(-c2csc(C(NC(C)=O)c3cccc(OC)c3)n2)c1 (stereo not given)	inconclusive [inhibitor, single point]	–
CCC(NC(=O)c1ccccc1NC(=O)c1ccccc1)C(=O)NNC(=O)CSc1nc2ccccc2o1 (stereo not given)	inconclusive [inhibitor, partial curve, poor fit]	–
Cc1ccc(Cc2cnc(N)s2)o1	inconclusive [inhibitor, full curve, poor fit]	–
CC1CCN(S(=O)(=O)c2ccc(NC(=O)CN3CCCCCC3)cc2)CC1	inconclusive [inhibitor, full curve, poor fit]	–
O=C(NCc1ccc(F)cc1)c1ccc2c(c1)nc1n2CCCCC1	inactive	–
COc1ccccc1NC(=S)N(Cc1ccccc1)Cc1ccccn1	inconclusive [inhibitor, single point]	–
COc1ccc(NC(=O)C2=Cc3ccccc3OC2)cc1	inconclusive [inhibitor, single point]	–
O=C1Nc2ccccc2N(O)N1c1ccc(Cl)c(Cl)c1	–	inactive: -19.9% [at 7.66 µM]
CN1CCN(c2ccc(S(=O)(=O)N3CCCCC3)cc2NC(=O)/C=C/c2ccc(Cl)c([N+](=O)[O-])c2)CC1	inconclusive [inhibitor, single point]	–
CC(C)n1nccc1N(Cc1ccc(Br)cc1)S(=O)(=O)c1ccccc1	inconclusive [inhibitor, single point]	–
COc1ccc(N2CCN(c3nc4cc(C)ccc4cc3C=O)CC2)cc1	inactive	–
Cc1[nH]c2ccccc2c1C(=O)C(=O)Nc1ccc2c(c1)OCO2	inactive	–
O=C(NCC1COc2ccccc2O1)c1cccc(S(=O)(=O)N2CCN(c3ccccc3)CC2)c1 (stereo not given)	inconclusive [inhibitor, partial curve, poor fit]	–
CCOc1ccc(NC(=S)Nc2ccc(F)cc2)cc1	inactive	–
Cc1cc(C(c2cc(C)c(N)c(C)c2)c2ccco2)cc(C)c1N	inconclusive [inhibitor, single point]	–
Cc1cccc(NC(=O)c2ccc3nc(CCc4ccccc4)oc3c2)c1C	inactive	–
Cc1cccc(OC(=O)c2cc(-c3ccc4c(c3)OCCO4)on2)c1C	inactive	–
COc1cccc(CNC(=O)C(Cc2ccccc2)NS(=O)(=O)c2ccc3c(c2)oc(=O)n3C)c1 (stereo not given)	inactive	–
O=c1[nH]c(-c2cccnc2)nc2sc(-c3ccccc3)cc12	inconclusive [inhibitor, full curve, poor fit]	–
COc1ccc(C(=O)NCc2ccc(-c3nc4ccccc4s3)cc2)cc1OC	inconclusive [inhibitor, single point]	–
COc1ccc(C(CC(=O)N2CCCC2)c2c(OC)cc(OC)c3c(-c4ccccc4)cc(=O)oc23)cc1 (stereo not given)	inconclusive [inhibitor, single point]	–

Compound	Potency	activity change, negative = inhibition
Cc1cc2[nH]c(=O)c(=O)[nH]c2cc1S(=O)(=O)Nc1ccc(OC(F)(F)F)cc1	inactive	–
CCOCCCn1c(-c2ccc(Cl)cc2)n[nH]c1=S	inconclusive [inhibitor, full curve, poor fit]	–
Cc1ccc(S(=O)(=O)Nc2cccc3cccnc23)c([N+](=O)[O-])c1	inconclusive [inhibitor, single point]	–
COc1ccc(CN(C)Cc2c(O)ccc3cc(Br)ccc23)cc1OC	inconclusive [inhibitor, partial curve, poor fit]	–
NC(=O)C1CCN(CC(=O)Nc2cccc(C(=O)Nc3cccc(C(F)(F)F)c3)c2)CC1	inconclusive [inhibitor, partial curve, poor fit]	–
CCOc1ccc(C2C(=O)N(C3CCCCC3)CC(=O)N2CCC2=CCCCC2)cc1OC (stereo not given)	inconclusive [inhibitor, single point]	–
Cc1cc(C)cc(C(=O)NCC(=O)N2CCN(C(c3ccccc3)c3ccccc3)CC2)c1	inconclusive [inhibitor, partial curve, poor fit]	–
CC(C)CNS(=O)(=O)c1ccc(Br)cc1N1CCC[C@@H]1CO	inconclusive [inhibitor, single point]	–
Cc1ccc(S(=O)(=O)N(CC(=O)NCc2ccccn2)c2ccc(Cl)cc2)cc1	inconclusive [inhibitor, partial curve, poor fit]	–
CSc1ncc(Cl)c(C(=O)Nc2c(C(=O)c3ccc(C)c(F)c3)oc3ccccc23)n1	inactive	–
O=C1CC(N2CCN(Cc3ccc4c(c3)OCO4)CC2)C(=O)N1c1cccc2ccccc12 (stereo not given)	inconclusive [inhibitor, single point]	–
CCC(C)Sc1cccc(-c2nc3ccc(C)cn3c2NC2CCCCC2)c1 (stereo not given)	active: 11.2 µM	–
CC(C)(C)c1cc(-c2csc(Nc3ccccc3)[n+]2Cc2ccc(C(=O)O)cc2)cc(C(C)(C)C)c1O	inconclusive [inhibitor, partial curve, poor fit]	–
CCOc1ccc(C2C(C#N)=C(N)N(N(C)C)C3=C2C(=O)CC(C)(C)C3)cc1 (stereo not given)	inactive	–
C/C=C/c1ccc(OCCCCN2CCC(C)CC2)c(OC)c1	inconclusive [inhibitor, partial curve, poor fit]	–
O=C(c1cc(COc2cccc(C(F)(F)F)c2)on1)N1C[C@H]2CC[C@H]1C2	inconclusive [inhibitor, partial curve, poor fit]	–
COc1ccc(N(CC(=O)NCCSc2ccccc2)S(=O)(=O)c2ccccc2)c(OC)c1	active: 10 µM	–
Brc1cnc(N2CCCC2)nc1N1CCCCC1	inconclusive [inhibitor, single point]	–
Cc1nc(-c2ccc(S(=O)(=O)NCc3ccc(OC(C)C)cc3)cc2)co1	inactive	–
CCN(CC)C(=O)c1sc(NC(=O)C(Sc2ccccc2)c2ccccc2)c(C(=O)OC(C)C)c1C (stereo not given)	inconclusive [inhibitor, full curve, poor fit]	–
CCCCC(CC)CNC(=O)CCS(=O)(=O)c1cccc2nonc12 (stereo not given)	inconclusive [inhibitor, single point]	–
c1csc(CNc2nc(NCC3CCCCC3)c3sccc3n2)c1	inconclusive [inhibitor, single point]	–

Compound	Potency	activity change, negative = inhibition
COc1cc(-c2noc(-c3ccccc3C(=O)NCc3ccco3)n2)cc(OC)c1OC	inconclusive [inhibitor, single point]	–
Cc1ccc(C(=O)CC(C(=O)O)n2cncn2)cc1 (stereo not given)	inactive	–
CC(C)(C)c1ccc(C(=O)NCCC(=O)NCc2cccs2)cc1	inconclusive [inhibitor, partial curve]	–
O=C(c1cccc(S(=O)(=O)N2CCN(c3ccccc3)CC2)c1)N1CCN(c2ccccc2O)CC1	inconclusive [inhibitor, single point]	–
CCN(CC)CCN(C(=O)c1ccc2c(c1)CCCC2)c1nc2ccc(C)cc2s1	inconclusive [inhibitor, partial curve, poor fit]	–
CCOC(=O)C1(Cc2cccc(OC)c2)CCN(CC2CC=CCC2)CC1 (stereo not given)	inconclusive [inhibitor, single point]	–
CCC(=O)Nc1ccc(/C=C(\C(C)=O)C(=O)c2ccccc2)cc1	inconclusive [inhibitor, single point]	–
CNC(=O)c1cc(Oc2ccc(NC(=O)Nc3ccc(Cl)c(C(F)(F)F)c3)cc2)ccn1	inconclusive [inhibitor, partial curve, poor fit]	–
O=C(c1cccs1)N1CCC(c2ccccc2)C1 (stereo not given)	inactive	–
Cn1cc(CN2CCCC(CO)(Cc3cccc(Cl)c3)C2)cn1 (stereo not given)	inactive	–
O=C(NCc1ccccc1)C1=C[C@@H](c2ccc(Br)cc2)C[C@@H](OCc2ccc(CO)cc2)O1	inconclusive [inhibitor, single point]	–
COc1ccc(N2C(=O)C(C)(C)C2c2c(O)ccc3ccccc23)cc1 (stereo not given)	inconclusive [inhibitor, partial curve, poor fit]	–
O=C(NC1CCN(C(=O)Nc2cccc(Cl)c2)CC1)C1CCCCC1	inactive	–
CC(C)(C)NC(=O)CSc1nc(O)cc(=O)[nH]1	inactive	–
FC(F)(F)c1nc2ccccc2nc1N/N=C\c1ccccc1	inconclusive [inhibitor, single point]	–
COc1ccc(C(=O)NCCn2cc(SCC(=O)Nc3ccc(F)cc3)c3ccccc32)cc1	inconclusive [inhibitor, single point]	–
CCOc1ccc(Br)cc1S(=O)(=O)Nc1ccc(C(=O)Nc2ccc(C)cc2)cc1	inconclusive [inhibitor, partial curve, poor fit]	–
COCc1ccc(CN2CCCC(CO)(Cc3ccccc3C)C2)o1 (stereo not given)	inconclusive [inhibitor, partial curve]	–
COc1ccc(OC)c([N+](=O)[O-])c1C(N)=O	–	inactive: 0.86% [at 0.307 µM]
CC(NS(=O)(=O)c1ccccc1)C1COc2ccccc2O1 (stereo not given)	inconclusive [inhibitor, single point]	–
C/C(=C\c1ccc(Cl)cc1)C(=O)c1c(C)cc(C)[nH]c1=O	inconclusive [inhibitor, partial curve]	–
